Experimental findings from publication PMC4336329 (PLoS ONE, 2015) are described below.

About 14,000 (4.5%) of roughly 310,000 compounds showed an effect of 50% or more. The effect is printed as a negative number. This is one part of the list.
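Also: peak tail current of the secondary pulse compared with the same well before compound.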

Chain of human ether-à-go-go-related gene (hERG) potassium channel (Q12809 whole entry, looked up): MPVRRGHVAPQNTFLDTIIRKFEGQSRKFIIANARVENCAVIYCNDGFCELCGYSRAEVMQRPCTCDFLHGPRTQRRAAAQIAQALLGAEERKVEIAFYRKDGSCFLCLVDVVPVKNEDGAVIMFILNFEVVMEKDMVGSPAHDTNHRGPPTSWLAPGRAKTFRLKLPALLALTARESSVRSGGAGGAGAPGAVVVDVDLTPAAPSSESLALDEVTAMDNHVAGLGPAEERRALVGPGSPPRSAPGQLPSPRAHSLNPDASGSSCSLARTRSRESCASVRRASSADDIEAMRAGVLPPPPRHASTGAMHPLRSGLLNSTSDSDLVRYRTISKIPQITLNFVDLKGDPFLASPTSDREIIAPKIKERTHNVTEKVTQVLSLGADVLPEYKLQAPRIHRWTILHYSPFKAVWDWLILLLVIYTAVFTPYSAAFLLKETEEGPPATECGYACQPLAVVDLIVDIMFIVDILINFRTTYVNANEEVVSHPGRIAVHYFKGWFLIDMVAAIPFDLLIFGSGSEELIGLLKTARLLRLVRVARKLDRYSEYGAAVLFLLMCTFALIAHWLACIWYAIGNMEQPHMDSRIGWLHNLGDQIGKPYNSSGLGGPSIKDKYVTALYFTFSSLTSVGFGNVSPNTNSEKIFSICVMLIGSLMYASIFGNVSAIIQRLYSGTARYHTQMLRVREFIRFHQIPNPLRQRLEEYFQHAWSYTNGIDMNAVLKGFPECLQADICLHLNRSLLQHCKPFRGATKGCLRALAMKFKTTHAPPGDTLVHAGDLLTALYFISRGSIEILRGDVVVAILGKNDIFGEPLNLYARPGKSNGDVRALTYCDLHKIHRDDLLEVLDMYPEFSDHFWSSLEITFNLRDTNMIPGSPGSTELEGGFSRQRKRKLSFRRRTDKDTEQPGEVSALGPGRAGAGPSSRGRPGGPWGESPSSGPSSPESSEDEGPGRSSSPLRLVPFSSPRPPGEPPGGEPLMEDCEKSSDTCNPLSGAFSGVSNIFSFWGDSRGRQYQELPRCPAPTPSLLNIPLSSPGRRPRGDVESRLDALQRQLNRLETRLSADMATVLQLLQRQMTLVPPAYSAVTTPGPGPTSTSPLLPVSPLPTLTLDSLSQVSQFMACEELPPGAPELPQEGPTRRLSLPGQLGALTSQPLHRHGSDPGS

The assay concerns the target human ether-à-go-go-related gene (hERG) potassium channel (human, UniProt Q12809). Put plainly: primary screen, population patch clamp on CHO cells stably expressing hERG.
In the case of `COc1ccc(C(=O)NCc2ccco2)cc1S(=O)(=O)N1CCOCC1`, the “hERG current change (%, negative = inhibition) at 10uM” value is reported as -12.7%.

Take `COc1cc(C(F)(F)F)ccc1C(=O)NCCc1ccco1`: the “hERG current change (%, negative = inhibition) at 10uM” value is listed as -20.8%. In the case of `CN(C)c1ccc(NC(=O)Nc2ccc3snnc3c2)cc1` it was 7.25%; in that of `O=C(CN1C(=O)NC2(CCCCCCC2)C1=O)N1CCOCC1`, -5.51%. In the case of `COc1cc2c(cc1OC)C(C(=O)N1CCOCC1)C(c1cccs1)N(C)C2=O` (centres unmarked) it was 4.09%; in that of `CCc1ccc(-c2nc(CS(=O)CC(=O)NCCCN3CCC(C)CC3)c(C)o2)cc1` (centres unmarked), -11.2%. For `C=C(C)C(=O)Nc1cccnc1Oc1ccc(F)cc1F`, the “hERG current change (%, negative = inhibition) at 10uM” value was found to be 1.98%. In the case of `O=C(Nc1ccccc1)c1cccc(S(=O)(=O)Nc2ccccn2)c1`, the “hERG current change (%, negative = inhibition) at 10uM” value is 23.6%. The figure for `CN(C)c1ccc2c(O)cc(=O)n(C)c2c1` is 6.76%; for `CCC(=NCc1ccco1)c1c(O)n(-c2ccc(OC)cc2)c(=O)[nH]c1=O` it is -23.7%.

Regarding `CC1CC(C)(C)CC2(C1)NC(=O)N(CC(=O)N1CCN(S(=O)(=O)c3cccs3)CC1)C2=O` (centres unmarked), the “hERG current change (%, negative = inhibition) at 10uM” value was -7.67%. The figure for `CCN(CC)S(=O)(=O)c1cccc2nsnc12` is 16%. The figure for `O=C(Nc1ccc(F)cc1)Nc1cc(S(=O)(=O)N2CCOCC2)ccc1N1CCCC1` is -97.4%.

In the case of `CCCN(C(=O)CSc1nc2ccccc2n1CC)C1CCS(=O)(=O)C1` (centres unmarked), the “hERG current change (%, negative = inhibition) at 10uM” value turned out to be 2.29%. As for `Cc1cccn2c(=O)c3cc(C(=O)NCC4CCCO4)c(=N)n(Cc4ccc(F)cc4)c3nc12` (centres unmarked), the “hERG current change (%, negative = inhibition) at 10uM” value is given as -75.7%.

Take `Cc1ccc(-c2c(C(=O)NC(C)C)oc(=O)c3ccccc23)cc1`: the “hERG current change (%, negative = inhibition) at 10uM” value is listed as -8.59%. The figure for `CC1Cc2ccccc2N1CC(=O)NCc1ccc2c(c1)OCO2` (centres unmarked) is 11.1%; for `O=[N+]([O-])c1ccc(C2(O)CN(c3ccccc3)C3=[N+]2CCS3)cc1.[Br-]` (centres unmarked) it is -60.8%. Take `Cc1ccc2oc(=O)c3cnn(CC(=O)Nc4cc(-c5cccc(F)c5)no4)c3c2c1`: the “hERG current change (%, negative = inhibition) at 10uM” value is given as -4.48%.

Take `O=c1oc(-c2ccccc2F)nc2scc(-c3ccccc3)c12`: the “hERG current change (%, negative = inhibition) at 10uM” value is given as -25.2%. In the case of `Cc1cc(=O)oc2c(C)c(OCC(=O)N(C)C)ccc12` it was 9.8%; in that of `CC1CN(C(=O)c2cc3c(=O)n4ccccc4nc3n2C)CC(C)O1` (centres unmarked), 15.4%. In the case of `O=C(Nc1ccc(OC(F)(F)F)cc1)c1cnc2n(c1=O)CCS2` it was -33.8%. On to `O=C(NC1CCCC1)C(c1cccs1)N(C(=O)c1ccco1)c1ccc2c(c1)OCCO2` (centres unmarked), for which the “hERG current change (%, negative = inhibition) at 10uM” value was -22.6%. In the case of `CC1(C)CC(=O)c2cc(OCC(=O)NCCCN3CCN(c4ccccc4F)CC3)ccc2O1` it was -47.4%. In the case of `Cc1nnc(SCC(=O)N2CCN(c3ccccc3)CC2)n1C1CC1` it was 5.65%; in that of `CC(Oc1ccc(Cl)cc1)C(=O)NCC1CCCO1` (centres unmarked), 2.5%; in that of `O/N=C(\c1ccccn1)C1CC1c1ccccc1` (centres unmarked), 10.3%.

On to `Cc1ccc(S(=O)(=O)N(C)C)cc1NC(=O)COC(=O)c1ccc2c(c1)OCO2`, for which the “hERG current change (%, negative = inhibition) at 10uM” value was -15.7%.

With `COc1ccc(-c2cc(=O)oc3cc(OC(C)C(=O)NCC4CCC(C(=O)O)CC4)ccc23)cc1` (centres unmarked), the “hERG current change (%, negative = inhibition) at 10uM” value was 10.6%. The figure for `CCC(Sc1nc(C)cc(C)n1)C(=O)Nc1cc(C)on1` (centres unmarked) is -1.92%; for `NS(=O)(=O)c1cccc(NC(=O)Nc2ccc(Cl)cc2)c1` it is -2.59%; for `COc1ccccc1C(=O)NC(C)c1ccc(-n2ccnc2)cc1` (centres unmarked) it is -52.6%. Consider `CCOC(=O)c1ccc(NC(=O)c2nc[nH]c2C(=O)N[C@@H](CC(C)C)C(=O)OC(C)(C)C)cc1`, for which the “hERG current change (%, negative = inhibition) at 10uM” value amounted to 1.54%. In the case of `CC(=O)N1c2ccc(S(=O)(=O)N3CCC(C(=O)Nc4cccc(F)c4)CC3)cc2CC1C` (centres unmarked) it was -0.952%; in that of `CCC(CC)NC(=O)CSc1ccc(S(=O)(=O)N2CCOCC2)cn1`, -1.92%. In the case of `O=C1CCCN1CCCNS(=O)(=O)c1ccccc1` it was 16.7%.

Turning to `CCCCc1cc(=O)oc2cc(C)cc(OCC(=O)NCc3cccnc3)c12`, the “hERG current change (%, negative = inhibition) at 10uM” value is -54.1%. In the case of `O=C(COC(=O)c1ccco1)Nc1nc2c(F)c(F)c(F)cc2s1` it was 1.61%; in that of `CCOC(=O)N1CCC(NC(=O)c2cc(C(=O)Nc3ccc(S(=O)(=O)N4CCOCC4)cc3)ccc2CO)CC1`, 36.8%; in that of `Cc1ccc2c(c1)C1CC(C)(O2)N(c2cccc(C(=O)N3CCN(c4ccccn4)CC3)c2)C(=O)N1` (centres unmarked), -25.3%. The figure for `O=C(Nc1ccc(N2CCOCC2)c(Cl)c1)C1CCCCC1` is 6.65%; for `CN(C)C(=O)CSC1c2ccccc2C(=O)N1c1ccccc1` (centres unmarked) it is 9.06%. The figure for `CCC(CC)C1C(C#N)=C(N)Oc2n[nH]c(-c3ccccc3)c21` (centres unmarked) is 17.9%; for `O=C(NCc1ccc2c(c1)OCO2)C1CCN(c2nccc(C(F)(F)F)n2)CC1` it is -6.63%; for `CCOc1cc(N2CCOCC2)c(OCC)cc1NC(=O)c1ccc(OC(C)C)cc1` it is 6.24%. Turning to `CC(=O)c1c(O)cc(O)cc1CC(=O)O`, the “hERG current change (%, negative = inhibition) at 10uM” value is reported as -4.21%. In the case of `COc1ccc(C(=O)Nc2ccccc2C(=O)Nc2cccc(C)n2)cc1` it was 10.3%. In the case of `CCc1ccc(/C=C2\Oc3cc(OS(C)(=O)=O)ccc3C2=O)cc1` it was 11.8%. The figure for `CCOC(=O)C1CCN(C(=O)CNC(=O)Cn2c(C)cc3ccccc3c2=O)CC1` is 6.61%; for `COc1ccc(OC)c(NC(=O)CSc2nnc(N)s2)c1` it is 12.2%. `Cc1ccc([N+](=O)[O-])cc1S(=O)(=O)N1CCCC1`: the “hERG current change (%, negative = inhibition) at 10uM” value is recorded as 7.21%. The figure for `Cc1ccc2nc(C)cc(N/N=C/c3ccc(F)cc3)c2c1` is -4.02%; for `O=C1C=C(c2cccc(Cl)c2O)C[C@@H](c2ccc(F)cc2)C1` it is -17.5%; for `O=C(Nc1nc2c(F)cccc2s1)C1CC1` it is -8.38%. In the case of `O=C(/C=C/c1ccc(Br)o1)NCc1ccccc1` it was 11.1%.
